Among all 3,200 compounds or so, about 75 (2%) showed an effect of 50% or more. The list shows a part of the results.
These compounds were tested on T1, S. aureus MSSA476. Details: relative growth, OD600, TSB; 25 µM; inhibitor.
T1 construct: MSSA476
Parameters: species or system S. aureus MSSA476 (TSB) or V. cholerae SAD30 (LB); 384-well bacterial growth screen at 25 uM, OD600 relative to DMSO control
In the case of `C=CC(=O)N1CCC(c2ccc(OC)cc2)C1` (stereo not drawn) [1-N16, 1-[3-(4-methoxyphenyl)pyrrolidin-1-yl]prop-2-en-1-one], the “% of control remaining” value is reported as 116.044%.
With `Cn1ncc2ccc(CNC(=O)N3CCSSCC3)cc21` [10-A20, N-[(1-methyl-1H-indazol-6-yl)methyl]-1,2,5-dithiazepane-5-carboxamide] the “% of control remaining” value was 123.125%.
`C=CC(=O)NC(c1nc(C)cs1)C1CC1` (stereo not drawn) [3-D21, N-[cyclopropyl(4-methyl-1,3-thiazol-2-yl)methyl]prop-2-enamide] was tested, and the “% of control remaining” value was 129.56%.
`Cc1ccc(CNC(=O)c2ccccc2NC(=O)CCl)cc1` [4-H21, 2-(2-chloroacetamido)-N-[(4-methylphenyl)methyl]benzamide] was tested, and the “% of control remaining” value was 87.6608%.
`CNC(=O)Cn1ccc2ccc(NC(=O)C(C#N)=Cc3ccco3)cc21` [9-F18, 2-cyano-3-(furan-2-yl)-N-{1-[(methylcarbamoyl)methyl]-1H-indol-6-yl}prop-2-enamide] was tested, and the “% of control remaining” value was 95.5805%.
In the case of `CC(=O)Nc1ccc(C=C(C#N)C(=O)NC2CCCCC2)cc1` [8-N16, 2-cyano-N-cyclohexyl-3-(4-acetamidophenyl)prop-2-enamide], the “% of control remaining” value is reported as 93.61%.
For `N#CC(=Cc1ccc(SC(F)(F)F)cc1)C(=O)NC1CC1` [9-C14, 2-cyano-N-cyclopropyl-3-{4-[(trifluoromethyl)sulfanyl]phenyl}prop-2-enamide], the “% of control remaining” value was 89.2884%.
`O=C(CCl)NCCSc1ccc(Cl)cc1` [4-H17, 2-chloro-N-{2-[(4-chlorophenyl)sulfanyl]ethyl}acetamide] was tested, and the “% of control remaining” value was 87.2797%.
For `O=C(CCl)N1CCSc2c([nH]c3ccccc23)C1` [6-F08, 2-chloro-1-{2H,3H,4H,5H,6H-[1,4]thiazepino[6,7-b]indol-4-yl}ethan-1-one], the “% of control remaining” value was 89.8049%.
For `C=CC(=O)N(C)Cc1cc2sccc2n1C` [2-B19, N-methyl-N-({4-methyl-4H-thieno[3,2-b]pyrrol-5-yl}methyl)prop-2-enamide], the “% of control remaining” value was 115.579%.
In the case of `CC(Cl)C(=O)N1CCCC1c1nc(-c2ccccc2)c(C(C)C)o1` (stereo not drawn) [7-H11, 2-chloro-1-{2-[4-phenyl-5-(propan-2-yl)-1,3-oxazol-2-yl]pyrrolidin-1-yl}propan-1-one], the “% of control remaining” value is reported as 101.413%.
In the case of `O=C(CCl)Nc1ccc(Oc2ccccc2)cc1` [4-J09, 2-chloro-N-(4-phenoxyphenyl)acetamide], the “% of control remaining” value is reported as 73.5588%.
For `O=C(CCl)N(Cc1ccc(Cl)cc1)C12CC3CC(CC(C3)C1)C2` [4-H07, N-(adamantan-1-yl)-2-chloro-N-[(4-chlorophenyl)methyl]acetamide], the “% of control remaining” value was 93.7589%.
In the case of `COC(=O)C(C(=O)CCl)=C1Nc2ccccc2N1` [10-G12, methyl 4-chloro-2-(2,3-dihydro-1H-1,3-benzodiazol-2-ylidene)-3-oxobutanoate], the “% of control remaining” value is reported as 93.125%.
For `C=CC(=O)N(Cc1noc2c1CCCC2)CC1CCCC1` [1-H13, N-(cyclopentylmethyl)-N-[(4,5,6,7-tetrahydro-1,2-benzoxazol-3-yl)methyl]prop-2-enamide], the “% of control remaining” value was 137.846%.
With `CC(=O)NCCc1ccc(C(=O)C(C)Cl)cc1` (stereo not drawn) [10-B03, N-{2-[4-(2-chloropropanoyl)phenyl]ethyl}acetamide] the “% of control remaining” value was 121.25%.
For `C=CC(=O)N1CCC(C(=O)N2CCCC(NC(=O)C(C)(C)C)C2)CC1` (stereo not drawn) [2-F05, 2,2-dimethyl-N-{1-[1-(prop-2-enoyl)piperidine-4-carbonyl]piperidin-3-yl}propanamide], the “% of control remaining” value was 112.097%.
In the case of `C=CC(=O)N(c1cc(C)ccc1C#N)C(C)C` [2-A22, N-(2-cyano-5-methylphenyl)-N-(propan-2-yl)prop-2-enamide], the “% of control remaining” value is reported as 144.125%.
For `Cc1ncsc1C=C(C#N)C(=O)Nc1ccc(C(=O)N(C)C)cc1` [9-J16, 4-[2-cyano-3-(4-methyl-1,3-thiazol-5-yl)prop-2-enamido]-N,N-dimethylbenzamide], the “% of control remaining” value was 104.27%.
In the case of `N#CC(=Cc1c(Cl)cccc1Cl)C(=O)Nc1nccs1` [8-P09, 2-cyano-3-(2,6-dichlorophenyl)-N-(1,3-thiazol-2-yl)prop-2-enamide], the “% of control remaining” value is reported as 146.722%.
In the case of `CC(Cl)C(=O)NCc1nc(N(C)C)no1` (stereo not drawn) [7-A04, 2-chloro-N-{[3-(dimethylamino)-1,2,4-oxadiazol-5-yl]methyl}propanamide], the “% of control remaining” value is reported as 109.576%.
`Cc1cccc(-n2c(C)cc(C(=O)CCl)c2C)c1` [10-A22, 2-chloro-1-[2,5-dimethyl-1-(3-methylphenyl)-1H-pyrrol-3-yl]ethan-1-one] was tested, and the “% of control remaining” value was 138.438%.
With `O=C(CCl)N1N=C(c2ccccc2)CC1c1ccccc1` (stereo not drawn) [4-I20, 2-chloro-1-(3,5-diphenyl-4,5-dihydro-1H-pyrazol-1-yl)ethan-1-one] the “% of control remaining” value was 107.48%.
In the case of `CC(=O)N1c2ccc(C(=O)CCl)cc2CC1C` (stereo not drawn) [10-I20, 1-(1-acetyl-2-methyl-2,3-dihydro-1H-indol-5-yl)-2-chloroethan-1-one], the “% of control remaining” value is reported as 66.25%.
With `O=C(CCl)NCC(F)(F)c1cc(-c2ccccc2)n[nH]1` [7-P20, 2-chloro-N-[2,2-difluoro-2-(3-phenyl-1H-pyrazol-5-yl)ethyl]acetamide] the “% of control remaining” value was 128.414%.
`O=C(CCl)NC(c1ccc(F)cc1)C1CCCC1` (stereo not drawn) [6-K08, 2-chloro-N-[cyclopentyl(4-fluorophenyl)methyl]acetamide] was tested, and the “% of control remaining” value was 107.561%.
`C=CC(=O)N1CCN(CC(=O)NC)CC1` [1-F03, N-methyl-2-[4-(prop-2-enoyl)piperazin-1-yl]acetamide] was tested, and the “% of control remaining” value was 96.7033%.
`CC1(C)CN(C(=O)CCl)CCO1` [6-C05, 2-chloro-1-(2,2-dimethylmorpholin-4-yl)ethan-1-one] was tested, and the “% of control remaining” value was 84.3415%.
`N#CC(C(=O)CCl)=C1NC(C23CC4CC(CC(C4)C2)C3)=CS1` [10-F14, 2-[4-(adamantan-1-yl)-2,3-dihydro-1,3-thiazol-2-ylidene]-4-chloro-3-oxobutanenitrile] was tested, and the “% of control remaining” value was 42.1875%.
With `Cc1noc(CC(NC(=O)CCl)c2ccccc2)n1` (stereo not drawn) [5-E04, 2-chloro-N-[2-(3-methyl-1,2,4-oxadiazol-5-yl)-1-phenylethyl]acetamide] the “% of control remaining” value was 113.661%.
In the case of `C=CC(=O)NCCC(=O)N1CCC(c2ncccn2)CC1` [3-M17, N-{3-oxo-3-[4-(pyrimidin-2-yl)piperidin-1-yl]propyl}prop-2-enamide], the “% of control remaining” value is reported as 86.3735%.
`CCN(c1ccc(NC(=O)CCl)cc1)C(C)C.Cl` [5-J08, 2-chloro-N-{4-[ethyl(propan-2-yl)amino]phenyl}acetamide hydrochloride] was tested, and the “% of control remaining” value was 119.854%.
`Cc1cccc(Cc2cnc(NC(=O)CCl)s2)c1` [4-B09, 2-chloro-N-{5-[(3-methylphenyl)methyl]-1,3-thiazol-2-yl}acetamide] was tested, and the “% of control remaining” value was 125.774%.
`CC1CCCC(NC(=O)C(C#N)=Cc2ccccc2)C1C` (stereo not drawn) [8-C19, 2-cyano-N-(2,3-dimethylcyclohexyl)-3-phenylprop-2-enamide] was tested, and the “% of control remaining” value was 92.2822%.
In the case of `C=CC(=O)NCc1csc(C(C)(C)C)n1` [2-C09, N-[(2-tert-butyl-1,3-thiazol-4-yl)methyl]prop-2-enamide], the “% of control remaining” value is reported as 105.135%.
In the case of `CC(Cl)C(=O)N1CCN(CCOc2ccc3c(c2)CCC3)CC1` (stereo not drawn) [6-H17, 2-chloro-1-{4-[2-(2,3-dihydro-1H-inden-5-yloxy)ethyl]piperazin-1-yl}propan-1-one], the “% of control remaining” value is reported as 96.2927%.
`CCOc1ccc(N2C(=O)C=CC2=O)cc1` [10-A14, 1-(4-ethoxyphenyl)-2,5-dihydro-1H-pyrrole-2,5-dione] was tested, and the “% of control remaining” value was 141.563%.
With `CC(Cl)C(=O)N(C)C1CCN(c2ccccn2)CC1` (stereo not drawn) [6-J20, 2-chloro-N-methyl-N-[1-(pyridin-2-yl)piperidin-4-yl]propanamide] the “% of control remaining” value was 95.6098%.
`Cc1ccc(C2CC(c3cccs3)=NN2C(=O)CCl)cc1` (stereo not drawn) [4-I22, 2-chloro-1-[5-(4-methylphenyl)-3-(thiophen-2-yl)-4,5-dihydro-1H-pyrazol-1-yl]ethan-1-one] was tested, and the “% of control remaining” value was 118.533%.
In the case of `C=CC(=O)N(Cc1cc(Cl)ccc1OC)C1CCCOCC1` (stereo not drawn) [2-C07, N-[(5-chloro-2-methoxyphenyl)methyl]-N-(oxepan-4-yl)prop-2-enamide], the “% of control remaining” value is reported as 102.698%.
In the case of `Cc1cc(C)c(NC(=O)C(C)Cl)c(C)c1` (stereo not drawn) [5-K15, 2-chloro-N-(2,4,6-trimethylphenyl)propanamide], the “% of control remaining” value is reported as 104.554%.
`C=CC(=O)NC1CCN(Cc2ccc(Cl)cc2)CC1` [1-N08, N-{1-[(4-chlorophenyl)methyl]piperidin-4-yl}prop-2-enamide] was tested, and the “% of control remaining” value was 110.418%.
For `C=CC(=O)NC(C)C(c1ccccc1Cl)n1cccn1` (stereo not drawn) [2-J05, N-[1-(2-chlorophenyl)-1-(1H-pyrazol-1-yl)propan-2-yl]prop-2-enamide], the “% of control remaining” value was 116.623%.
For `CN(C)c1ccc(C=C(C#N)C(=O)Nc2nccs2)cc1` [8-E06, 2-cyano-3-[4-(dimethylamino)phenyl]-N-(1,3-thiazol-2-yl)prop-2-enamide], the “% of control remaining” value was 127.469%.
`CC(Cl)C(=O)NCc1ccccc1S(=O)(=O)N1CCOCC1` (stereo not drawn) [7-K15, 2-chloro-N-{[2-(morpholine-4-sulfonyl)phenyl]methyl}propanamide] was tested, and the “% of control remaining” value was 99.2151%.
